According to article PMC4336329 (PLoS ONE, 2015):
Screen size: about 310,000 compounds; about 2,200 (0.71%) showed an effect of 50% or more. The effect is printed as a negative number. The list shows a part of the results.

target: human ether-à-go-go-related gene (hERG) potassium channel (human, UniProt Q12809); test: primary screen, population patch clamp on CHO cells stably expressing hERG
Sequence (Q12809 whole entry, looked up): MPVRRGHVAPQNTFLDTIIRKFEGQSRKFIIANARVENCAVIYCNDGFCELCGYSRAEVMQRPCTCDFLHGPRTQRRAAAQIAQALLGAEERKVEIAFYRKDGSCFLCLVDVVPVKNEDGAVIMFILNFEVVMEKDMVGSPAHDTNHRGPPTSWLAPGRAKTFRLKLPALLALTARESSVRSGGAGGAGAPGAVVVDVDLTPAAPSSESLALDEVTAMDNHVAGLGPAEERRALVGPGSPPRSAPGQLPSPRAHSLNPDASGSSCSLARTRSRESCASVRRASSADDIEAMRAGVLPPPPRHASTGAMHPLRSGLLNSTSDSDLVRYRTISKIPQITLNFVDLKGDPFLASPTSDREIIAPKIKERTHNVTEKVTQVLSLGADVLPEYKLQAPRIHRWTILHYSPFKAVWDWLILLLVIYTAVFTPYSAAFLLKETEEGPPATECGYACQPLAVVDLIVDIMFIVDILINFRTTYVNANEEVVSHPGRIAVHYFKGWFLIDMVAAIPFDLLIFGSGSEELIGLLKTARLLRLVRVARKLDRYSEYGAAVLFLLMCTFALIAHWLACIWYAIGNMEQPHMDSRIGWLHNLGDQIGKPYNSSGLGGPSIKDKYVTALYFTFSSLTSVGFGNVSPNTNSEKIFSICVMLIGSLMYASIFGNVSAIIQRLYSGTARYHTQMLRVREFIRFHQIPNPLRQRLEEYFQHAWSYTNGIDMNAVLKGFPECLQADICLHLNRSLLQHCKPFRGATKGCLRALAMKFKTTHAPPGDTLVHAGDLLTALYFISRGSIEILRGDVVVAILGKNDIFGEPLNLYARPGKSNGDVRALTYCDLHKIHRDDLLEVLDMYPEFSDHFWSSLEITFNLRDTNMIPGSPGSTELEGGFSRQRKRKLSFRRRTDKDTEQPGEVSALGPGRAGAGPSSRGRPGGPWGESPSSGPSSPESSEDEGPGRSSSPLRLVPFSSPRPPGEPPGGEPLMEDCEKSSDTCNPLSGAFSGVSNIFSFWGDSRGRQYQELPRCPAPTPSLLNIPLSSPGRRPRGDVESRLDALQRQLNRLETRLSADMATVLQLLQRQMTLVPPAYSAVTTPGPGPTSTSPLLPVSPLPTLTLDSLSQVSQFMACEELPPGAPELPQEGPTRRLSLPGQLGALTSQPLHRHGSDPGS

Structure (SMILES)	hERG current change (%, negative = inhibition) at 1uM [%]
CC(OC(=O)Cn1[nH]c(=O)c2ccccc2c1=O)C(=O)Nc1ccc(F)cc1Cl (stereo not drawn)	20.1
Cc1ccc(NNc2c(C)nc3ccccc3nc2=O)cc1	15.2
CCC(=O)c1ccc(OCc2ccc(C(=O)OC)cc2)cc1	-1.58
Br.CN(C)c1nc(=Nc2cccc(Cl)c2)ss1	13.3
CCCCc1ccc(-c2ccc(Br)cc2)nc1	9.99
Clc1ccc(C2=C3CCCCn4c(-c5ccccc5)c[n+](c43)C2)cc1.[Br-]	-83.1
NC(=O)c1ccc(SCC(=O)OCC(=O)NCc2cccs2)c([N+](=O)[O-])c1	6.83
C=CCNc1sc(C(=O)c2cccs2)c(N)c1C#N	22.3
Cc1cc(C)n2nc(SCC(=O)NCc3ccco3)nc2n1	11
O=C(CSc1nccc(=O)[nH]1)NC1CCCC1	16.7
CCOc1cc(C(=O)N(CC)CC(=O)Nc2ccc3c(c2)OCCO3)ccc1OC	13.9
Oc1c(Cl)cc(Cl)cc1/C=N/c1nc(-c2ccc(Cl)cc2)cs1	12.2
O=C(CN1C(=O)c2ccc(Br)cc2C1=O)NCC1CCCO1 (stereo not drawn)	-0.491
COc1nc(Nc2cccc(C)c2)nc(N2CCCCC2)n1	-2.96
CCC(Cc1ccccc1)NC(=O)C1CCC(CNc2c(N3CCCC3)c(=O)c2=O)CC1 (stereo not drawn)	10.3
CS(=O)(=O)N1CCC(C(=O)Nc2cc(Cl)ccc2Cl)CC1	5.11
Br.CCCCn1c(=N)n(CC(=O)c2ccco2)c2ccccc21	-4.58
CCOc1ccc(NC(=O)c2ccc(OCC3CCCO3)cc2)cc1S(=O)(=O)N(CC)CC (stereo not drawn)	9.78
Cc1c(NC(=S)NC(=O)c2ccccc2Br)c(=O)n(-c2ccccc2)n1C	9.86
Cc1ccc(C(=O)N(CC(=O)Nc2sc(C)c(C)c2C(N)=O)C2CCCC2)cc1	11.9
CCN(CC(=O)NCc1cccs1)C(=O)c1ccc(OC)c(S(=O)(=O)N2CCOCC2)c1	-1.94
CCOC(=O)[C@H]1[C@H]2COc3ccc(Cl)cc3[C@@H]2N2C(=O)CN(Cc3ccc(Cl)cc3)C(=O)[C@@]12C	14.4

Structure (SMILES)	hERG current change (%, negative = inhibition) at 1uM [%]
Cc1cc(N/N=C/c2cccc(Br)c2)nc2ccccc12	12.8
O=C(O)C(C(O)c1ccc([N+](=O)[O-])cc1)[n+]1ccccc1.[Br-] (stereo not drawn)	18.1
COc1ccc(CSc2nnc(N)s2)cc1F	-3.27
CC1=CC(C)C2C(=O)N(CCCN(C)C)C(=O)C2C1 (stereo not drawn)	-2.52
COc1ccc(NC(=O)C2CCN(S(=O)(=O)c3cccnc3)CC2)cc1Cl	12
CCCCC(=O)Nc1cccc(-c2nc3ncccc3o2)c1C	7.41
Cc1ccc(N2C(=O)CSC2c2cccnc2)c(Cl)c1 (stereo not drawn)	11.7
CCc1cccc(NC(=O)CN(c2ccc(OC)cc2)S(=O)(=O)c2c(C)n[nH]c2C)c1	9.95
COCCNC(=O)/C(C#N)=C/c1c(N2CCN(C)CC2)nc2c(C)cccn2c1=O	9.36
CCOC(=O)c1oc2ccccc2c1CN1CCN(C(=O)c2ccccc2)CC1	-6.43
COc1ccc(-n2nnnc2SCC(=O)c2cccc(OC)c2)cc1	11.6
COCCNC(=O)C(C)OC(=O)C1=Cc2ccccc2OC1 (stereo not drawn)	8.02
CC1(C)CC(=O)C(C(=S)Nc2ccccc2)=C(NC2CC(C)(C)NC(C)(C)C2)C1	10.3
O=C1c2ccccc2C(=O)N1CC(O)CN1CCOCC1 (stereo not drawn)	8.71
O=C(c1cccc(C(F)(F)F)c1)N1C[C@H]2C[C@@H](C1)c1cccc(=O)n1C2	-4.53
CCOC(=O)c1ccccc1NC(=O)CSc1nc(N)cc(N)n1	7.47
CC1CC(C)CN(S(=O)(=O)CCNC(=O)c2ccc3c(c2)OCO3)C1 (stereo not drawn)	10.8
Cc1ccc(-n2ncc(C(=O)NCC3CCN(C4CCCC4)C3)c2C2CCN(C(=O)OC(C)(C)C)CC2)cc1 (stereo not drawn)	0.717
CCN(CC(=O)Nc1c(F)cccc1F)C(=O)CCc1c[nH]c2ccccc12	9.18
CCCCCCn1c(CN2CCC(C)CC2)nc2c1c(=O)n(C)c(=O)n2C	5.88
COC(=O)c1ccccc1NC(=O)c1ccccc1OC	2.47
O=C(CCC(=O)Nc1nnc(C2CCCCC2)s1)Nc1ccc(F)cc1	9.51

Structure (SMILES)	hERG current change (%, negative = inhibition) at 1uM [%]
O=C(Nc1ccc(Br)cc1)NC1CCCCCCC1	9.2
CCCC(C)NC(=O)COC(=O)c1ccccc1SCC(=O)NC(C)CCC (stereo not drawn)	-3.9
Cc1ccc[n+](CC(=O)Nc2cc(C(F)(F)F)ccc2Cl)c1.[Cl-]	12.6
COc1ccccc1-c1sc2cc3c(cc2c1C#CCO)OCO3	19
Cc1ccccc1OCC(=O)NNC(=O)c1ccc(-c2ccccc2)cc1	0.401
CCOC(=O)c1cnc(-c2ccccc2)nc1Oc1ccc(Cl)cc1	6.28
CCOc1ccc(S(=O)(=O)Nc2ccc(S(=O)(=O)N3CCCCC3)cc2)cc1	6.8
CCN(CC(=O)Nc1ccc(NC(C)=O)cc1)C(=O)C1CCCN(C(=O)c2ccc(Cl)cc2)C1 (stereo not drawn)	6.53
O=C(Nc1cccc(NC(=O)c2cccc([N+](=O)[O-])c2)n1)c1cccc([N+](=O)[O-])c1	11.5
CC1(C)CC(CCN)(Cc2ccccc2Cl)CCO1 (stereo not drawn)	15.4
Cc1ccc(NC(=O)CCC(=O)N/N=C/c2ccccc2O)cc1	9.34
COc1ccc(Cc2c(O)nc(SC)n(C(C)=O)c2=O)cc1	-0.319
Clc1cccc(Cc2ccc(Cl)nn2)c1	4.52
C=CCN(C(=O)c1csnn1)C(C(=O)NCc1ccccc1)c1ccccc1F (stereo not drawn)	8.54
O=S(=O)(c1ccc2oc(=S)[nH]c2c1)N1CCCCC1	16.8
CC(=O)c1ccccc1NS(=O)(=O)c1ccc2c(c1)CC(=O)N2	9.36
CC(C(=O)Nc1ccc(C#N)cc1)N1CCN(C(=O)C2CC2)CC1 (stereo not drawn)	-14.4
CCCCCC(=O)N1CC2(CC)CN(C(=O)CCCCC)CC(CC)(C1)C2=O	0.984
O=S(=O)(Nc1cc(Cl)ccc1-n1cncn1)c1cc(Br)ccc1Br	6.48
CC(C)(C)C(=O)Nc1nc2c(c(=O)[nH]1)CCCC2	9.41
CCc1ccc2c(c1)C(c1ccc([N+](=O)[O-])cc1)=NNC(c1ccc(F)cc1)=N2	-2.97
Cc1cc(C)nc(/N=C(\N)C2=C(O)CC(C)(C)CC2=O)n1	10.2

Structure (SMILES)	hERG current change (%, negative = inhibition) at 1uM [%]
COc1cc(C#N)c(NC(=O)CN2CCN(CCO)CC2)cc1OC	0.101
COc1ccccc1Oc1nc2c(c(=O)n(Cc3ccccc3F)c(=O)n2C)n1C	11.8
CCOc1ccc(C(=O)Nc2ccc3c(c2)OCO3)cc1OCC	10.4
O=c1c2c(nc3c(-c4ccccc4)c[nH]n13)CCCC2	-4.25
COc1cc(OC)cc(C(=O)NCC(=O)OCC(=O)Nc2ncc(Cl)cc2Cl)c1	6.01
COc1cccc(CNC(=O)C2Cc3ccccc3CN2C(C)=O)c1 (stereo not drawn)	8.98
CCC/C(=N\NC(=O)c1csc(C)c1C)c1cccs1	2.45
O=P(Cc1cc(Br)cc(Br)c1OCCO)(c1ccccc1)c1ccccc1	7.44
Cc1ccc(S(=O)(=O)NC(=O)NC(C)c2ccc(F)cc2)cc1 (stereo not drawn)	17.9
CCN1C(=O)[C@H]2[C@@H](c3ccc(-c4cccc(Cl)c4)cc3)N3CCCC[C@@]3(C(=O)OC)[C@H]2C1=O.O=C(O)C(F)(F)F	5.31
C[C@@H]1CC[C@@]2(NC1)O[C@H]1C[C@H]3[C@@H]4CC=C5C[C@@H](O)CC[C@]5(C)[C@H]4CC[C@]3(C)[C@H]1[C@@H]2C	18.1
CC1CCCCN1C(=O)CCc1nnc(Cc2c[nH]c3ccccc23)o1 (stereo not drawn)	8.2
CCOc1ccc(C(C(=O)NC2CCCCC2)N(C(=O)c2ccccn2)c2cccnc2)cc1 (stereo not drawn)	-0.986
CC(=O)NS(=O)(=O)c1ccc(NC(=S)NC(=O)COc2ccccc2C)cc1	7.43
Cc1ccc(Cl)cc1NS(=O)(=O)c1ccc(-n2cccn2)cc1	10.1
CCN(C(=O)CSc1nc2ccccc2c(=O)n1CCOC)C1CCS(=O)(=O)C1 (stereo not drawn)	-0.208
C=C1c2cc(OC)ccc2NC(=O)N1CC	0.357
COc1ccc(C(=O)Nc2c(N)nc(SCC(=O)N3CCC(C)CC3)[nH]c2=O)cc1	7.9
Cc1ccc(S(=O)(=O)N2CCC(C(=O)NCCc3ccc(S(N)(=O)=O)cc3)CC2)cc1	10.7
CCC(=O)N1CCc2cc(Br)cc(S(=O)(=O)CCC(=O)NCCOC)c21	17
Cc1ccc(NC(=O)c2cccc(S(=O)(=O)NCc3ccccc3)c2)nc1	0.799
